From PubChem BioAssay AID504845 (National Center for Advancing Translational Sciences (NCATS), 2011)
About 150 (0.038%) of roughly 390,000 compounds were called active. Inconclusive results, whose numbers are uncertain, are shown with a selection of clear calls. Calls follow the shape of the dose curve; as a rule, active = well fitted inhibition curve with a large enough effect; inconclusive = small, poorly fitted or top-dose-only effect; inactive = no such curve, though single readings can be large or run the other way. Potencies of inconclusive entries are doubtful fits and often do not repeat.

These compounds were tested against Regulator of G-protein signaling 4 (Homo sapiens) (UniProt P49798) (assay: Inhibitors of Regulator of G Protein Signaling (RGS) 4: qHTS). Settings: Transcreener GDP fluorescence polarization, RGS4-accelerated GTP hydrolysis; series mostly up to 114 µM.
Procedure, shortened: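 MLSMR compounds (23 nl, pin-transferred) preincubated 10 min at room temperature with a 500nM (2x) first reagent, then RGS4 at 900nM (2x) plus Transcreener GDP mix added; fluorescence polarization (620/688 nm) read before and after 90 min at 30 °C.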
Also: nearly all actives have a fitted effect of over 75% in size.
Potency is read from the fitted curve at half-maximal effect; tags tell the direction and shape of the fitted curve.

Chain of UniProt P49798 (P49798 whole entry, looked up): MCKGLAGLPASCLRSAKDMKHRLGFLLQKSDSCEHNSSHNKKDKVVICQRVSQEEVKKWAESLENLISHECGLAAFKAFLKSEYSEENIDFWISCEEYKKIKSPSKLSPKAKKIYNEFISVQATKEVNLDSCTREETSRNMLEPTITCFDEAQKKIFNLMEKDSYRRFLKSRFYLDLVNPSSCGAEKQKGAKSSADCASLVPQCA

SMILES | Potency
CCOC(=O)N1CCN(C(=O)c2ccc(CS(=O)(=O)c3ccc(OC)cc3)o2)CC1 | inconclusive: 89.1 µM [inhibitor, single point]
Brc1ccc(CSc2ccc(-c3ccco3)nn2)cc1 | inconclusive: 17.8 µM [inhibitor, full curve, poor fit]
O=C1C=C(NC2=CC3OC(c4ccccc4)OCC3OC2=O)CCC1 (stereo not drawn) | inconclusive: 79.4 µM [inhibitor, partial curve, poor fit]
COc1cc(C2Nc3ccccc3C(=O)N2NS(C)(=O)=O)c([N+](=O)[O-])cc1OC (stereo not drawn) | inconclusive: 17.8 µM [inhibitor, full curve, poor fit]
Nc1ccc2cc3ccccc3cc2c1 | inconclusive: 25.1 µM [inhibitor, full curve, poor fit]
COc1ccc(OCc2n[nH]c(=S)n2N)cc1 | inconclusive: 79.4 µM [inhibitor, partial curve, poor fit]
COc1cc(/C=N/NC(=O)c2ccc(COc3ccccc3Cl)o2)cc(Br)c1O | inconclusive: 20 µM [inhibitor, full curve, poor fit]
Cc1ccc(OCC(=O)N/N=C/C=C/c2ccco2)cc1 | inconclusive: 79.4 µM [inhibitor, partial curve, poor fit]
CCOC(=O)N1CCC(N2CCN(Cc3ccc(C)o3)C(CCO)C2)CC1 (stereo not drawn) | inconclusive: 44.7 µM [inhibitor, partial curve, poor fit]
COc1ccc(Cl)cc1NC(=O)CSc1ccc(-c2sc(C)nc2C)nn1 | inconclusive: 50.1 µM [inhibitor, partial curve, poor fit]
CC(=O)NC(NC(C)=O)c1ccc(Br)cc1 | inconclusive: 100 µM [inhibitor, single point]
Cc1cc(SCC(=O)c2cccc([N+](=O)[O-])c2)nc(=O)[nH]1 | inconclusive: 56.2 µM [inhibitor, partial curve, poor fit]
CNC(=O)COc1ccc(S(=O)(=O)N2CCCC2)cc1 | inconclusive: 22.4 µM [inhibitor, full curve, poor fit]
CCOC(=O)c1c(NC(=O)CN2CCCCC2)sc2c1CCC(C=O)=C2Cl | inconclusive: 89.1 µM [inhibitor, single point]
O=C(Nc1ccc2oc(-c3cccnc3)nc2c1)c1ccc(-c2ccc(Cl)cc2)o1 | inconclusive: 89.1 µM [inhibitor, partial curve, poor fit]
COC(=O)/C=C1\SC(=NC(=O)c2ccc(C)cc2)NC1=O | inconclusive: 79.4 µM [inhibitor, partial curve, poor fit]
O=C1OC[C@@H]2CCCN2C(=O)[C@H](CC(=O)N(CCO)Cc2ccccc2)C/C=C\C[C@H]1Cc1ccc(F)cc1 | inconclusive: 89.1 µM [inhibitor, single point]
CCCC(=O)Nc1nnc(S(=O)(=O)N(C)Cc2ccco2)s1 | inconclusive: 100 µM [inhibitor, single point]
Cc1ccc(C)c(NC(=O)C2CC3c4ccccc4C2c2ccccc23)c1 (stereo not drawn) | inconclusive: 89.1 µM [inhibitor, single point]
CC1(C)OC(C)(C)/C(=C/Nc2ccc(O)cc2)C1=O | inconclusive: 89.1 µM [inhibitor, single point]
FC(F)(F)c1ccc(-c2nc(=S)[nH][nH]2)cc1 | inconclusive: 70.8 µM [inhibitor, partial curve, poor fit]

SMILES | Potency
NC(=O)CC(NC(=O)c1ccc(Br)cc1)c1ccc(NC2CCCCCCC2)c([N+](=O)[O-])c1 (stereo not drawn) | inconclusive: 70.8 µM [inhibitor, partial curve, poor fit]
COc1ccccc1OCCn1cc(/C=C(\C#N)C(=O)NCc2ccco2)c2ccccc21 | inactive
CN1CCN(c2ccc([N+](=O)[O-])cc2C(=O)N2CCCCC2)CC1 | inconclusive: 89.1 µM [inhibitor, single point]
COC(=O)c1ccc2nc(Nc3nc4ccc(F)cc4s3)sc2c1 | inactive
O=C(CSc1ncn[nH]1)c1ccc2c(c1)OCO2 | inconclusive: 50.1 µM [inhibitor, partial curve, poor fit]
CCCCNc1ncnc2oc(-c3ccco3)c(-c3ccco3)c12 | inconclusive: 50.1 µM [inhibitor, partial curve, poor fit]
O=[N+]([O-])c1cccc(NNS(=O)(=O)c2ccccc2F)c1 | inconclusive: 17.8 µM [inhibitor, full curve, poor fit]
CC(=O)Nc1ccc(NC(=O)CSc2ccc(-c3ccc(-n4ccnc4)cc3)nn2)cc1 | inconclusive: 31.6 µM [inhibitor, full curve, poor fit]
CCOC(=O)CCSc1nc(C)c2cc(C)c(C)cc2n1 | inconclusive: 89.1 µM [inhibitor, single point]
Cc1cc2c(NC(=O)CCCC(=O)O)cccc2nn1 | inactive
COC(=O)/C=C/c1ccccc1S(=O)(=O)N(Cc1ccccc1)Cc1ccco1 | inactive
O=C(NN1C(=O)/C(=C/C=C/c2ccco2)SC1=S)c1ccncc1 | inconclusive: 79.4 µM [inhibitor, partial curve, poor fit]
C=CCSC1=C(C#N)C(c2ccccc2C)CC(=O)N1 (stereo not drawn) | inconclusive: 79.4 µM [inhibitor, partial curve, poor fit]
CCOC(=O)c1c(NC(=S)NCC2CCCO2)sc(C)c1C (stereo not drawn) | inconclusive: 79.4 µM [inhibitor, partial curve, poor fit]
Cc1ccc(C(C)C)c(OCCN2CCc3ccccc3C2)c1 | inactive
CC(=O)c1c(C(C)=O)c(C)n(Cc2ccc3c(c2)OCO3)c1C | inactive
CCN(CC)c1ccc(NC(=O)c2ccco2)cc1 | inactive
O=C(CCc1nnc2n(Cc3ccccc3)c(=O)c3ccccc3n12)NCCN1CCOCC1 | inconclusive: 89.1 µM [inhibitor, single point]
O=C(CSc1ncc(-c2ccccc2)[nH]1)Nc1cccc(C(F)(F)F)c1 | inactive
O=C1C(=Cc2ccco2)CCCC1=Cc1ccco1 | inconclusive: 44.7 µM [inhibitor, partial curve, poor fit]
Cc1cc(Cl)c(S(=O)(=O)N/N=C/c2ccc3c(c2)OCO3)c(Cl)c1 | inconclusive: 89.1 µM [inhibitor, single point]

SMILES | Potency
COc1ccc(C2Nc3ccccc3C(=O)N2Cc2ccco2)cc1COc1ccccc1F (stereo not drawn) | inconclusive: 70.8 µM [inhibitor, partial curve, poor fit]
CCOc1ccc(N2CC(C(=O)OCC(=O)c3ccc(OC)cc3)CC2=O)cc1 (stereo not drawn) | inconclusive: 44.7 µM [inhibitor, partial curve, poor fit]
O=C(COC(=O)c1cnc(Cl)c(Cl)c1)NCc1cccs1 | inconclusive: 35.5 µM [inhibitor, partial curve, poor fit]
CCN(CC)C(=O)c1sc(NC(=O)c2cc(-c3ccc(C)s3)nc3ccccc23)c(C(=O)OC)c1C | inconclusive: 17.8 µM [inhibitor, full curve, poor fit]
Cc1ccc(C2CC(c3ccccc3)=NN2C(=S)Nc2ccccc2)o1 (stereo not drawn) | inconclusive: 50.1 µM [inhibitor, partial curve, poor fit]
CCOc1c2ccc(C(=O)NCCc3cccs3)cc2nn1CC | inactive
Cc1ccccc1CN1CCc2c(OCC(=O)N3CCCc4ccccc43)cccc2C1=O | inactive
Cc1ccc(CS(=O)(=O)c2ncc(Cl)c(C(=O)Nc3nnc(C)s3)n2)cc1 | inconclusive: 79.4 µM [inhibitor, partial curve, poor fit]
C=CCNC(=S)Nc1ccc(Cl)cc1 | inconclusive: 39.8 µM [inhibitor, partial curve, poor fit]
CCCN1CCN(C(=O)c2oc3ccccc3c2NC(=O)COc2ccc(OC)cc2)CC1 | inconclusive: 17.8 µM [inhibitor, full curve, poor fit]
COc1ccc(N2CCN(C(=O)c3ccc(Oc4ccc(C(F)(F)F)cn4)cc3)CC2)cc1 | inactive
Cn1c2ccccc2c2c3c(c4c5ccccc5n(CCC#N)c4c21)CNC3=O | inconclusive: 0.752 µM [inhibitor, partial curve, poor fit]
O=[N+]([O-])c1cc([N+](=O)[O-])c2cccnc2c1Oc1ccccc1O | inactive
Cc1ccc(OCC(=O)Nc2cccc(C(=O)OCc3cc(=O)n4nc(C)sc4n3)c2)cc1 | inconclusive: 89.1 µM [inhibitor, single point]
CCOC(=O)/C(C#N)=C\c1cc(OC)c(OC)cc1[N+](=O)[O-] | inconclusive: 17.8 µM [inhibitor, full curve, poor fit]
CC(=O)c1ccc(C(=O)N2CCc3c([nH]c4ccccc34)C2c2cccc(C)n2)s1 (stereo not drawn) | inactive
COCCCNC(=S)NNC(=O)c1ccc(S(=O)(=O)N2CCC(C)CC2)cc1 | inconclusive: 89.1 µM [inhibitor, partial curve, poor fit]
COc1ccc(OCC(=O)Nc2ccccc2C(=O)OCc2cc(=O)n3nc(C)sc3n2)cc1 | inactive
COC(=O)c1cc(=O)n(Cc2ccco2)c(=Nc2ccc(F)cc2)s1 | inconclusive: 17.8 µM [inhibitor, full curve, poor fit]
O=C(NCc1ccco1)c1ccccc1Br | inconclusive: 44.7 µM [inhibitor, partial curve, poor fit]
COc1ccc2cc(S(=O)(=O)N3CCCC(C)C3)ccc2c1 (stereo not drawn) | inconclusive: 79.4 µM [inhibitor, partial curve, poor fit]
